These results are taken from publication PMC6265451.

Chains of the proteins cited; added tags and fusions are not shown.
UniProt P29468: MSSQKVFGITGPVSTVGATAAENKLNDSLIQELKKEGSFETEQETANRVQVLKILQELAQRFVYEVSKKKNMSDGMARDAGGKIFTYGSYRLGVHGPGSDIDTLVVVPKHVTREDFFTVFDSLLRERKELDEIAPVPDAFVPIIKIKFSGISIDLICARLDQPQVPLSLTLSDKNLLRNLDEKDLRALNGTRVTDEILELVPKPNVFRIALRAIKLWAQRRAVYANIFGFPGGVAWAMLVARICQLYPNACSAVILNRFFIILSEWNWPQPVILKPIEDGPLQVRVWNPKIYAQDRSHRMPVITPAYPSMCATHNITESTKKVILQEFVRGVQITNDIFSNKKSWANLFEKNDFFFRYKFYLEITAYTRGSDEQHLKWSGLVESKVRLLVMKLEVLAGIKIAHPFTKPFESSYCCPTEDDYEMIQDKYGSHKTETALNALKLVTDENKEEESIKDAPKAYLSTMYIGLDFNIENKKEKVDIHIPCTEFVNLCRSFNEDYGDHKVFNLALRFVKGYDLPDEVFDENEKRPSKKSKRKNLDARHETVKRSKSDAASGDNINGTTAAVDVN

Sequences and labels used below:
T1: Mpe1-TAPS (S. cerevisiae) (UniProt P35728)
T1 sequence: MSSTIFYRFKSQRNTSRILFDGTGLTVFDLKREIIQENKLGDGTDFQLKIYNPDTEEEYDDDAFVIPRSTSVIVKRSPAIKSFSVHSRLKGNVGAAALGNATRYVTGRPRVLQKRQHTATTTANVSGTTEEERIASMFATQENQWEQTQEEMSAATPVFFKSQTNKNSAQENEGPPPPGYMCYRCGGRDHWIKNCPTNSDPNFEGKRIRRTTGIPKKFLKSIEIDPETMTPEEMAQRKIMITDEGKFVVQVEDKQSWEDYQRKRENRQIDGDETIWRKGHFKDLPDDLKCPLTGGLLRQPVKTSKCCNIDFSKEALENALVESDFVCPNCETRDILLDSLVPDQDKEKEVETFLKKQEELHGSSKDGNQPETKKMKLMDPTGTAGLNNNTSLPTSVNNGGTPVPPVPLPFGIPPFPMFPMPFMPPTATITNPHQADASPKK

T2: Pta1-TAPS (S. cerevisiae) (UniProt Q01329)
T2 sequence: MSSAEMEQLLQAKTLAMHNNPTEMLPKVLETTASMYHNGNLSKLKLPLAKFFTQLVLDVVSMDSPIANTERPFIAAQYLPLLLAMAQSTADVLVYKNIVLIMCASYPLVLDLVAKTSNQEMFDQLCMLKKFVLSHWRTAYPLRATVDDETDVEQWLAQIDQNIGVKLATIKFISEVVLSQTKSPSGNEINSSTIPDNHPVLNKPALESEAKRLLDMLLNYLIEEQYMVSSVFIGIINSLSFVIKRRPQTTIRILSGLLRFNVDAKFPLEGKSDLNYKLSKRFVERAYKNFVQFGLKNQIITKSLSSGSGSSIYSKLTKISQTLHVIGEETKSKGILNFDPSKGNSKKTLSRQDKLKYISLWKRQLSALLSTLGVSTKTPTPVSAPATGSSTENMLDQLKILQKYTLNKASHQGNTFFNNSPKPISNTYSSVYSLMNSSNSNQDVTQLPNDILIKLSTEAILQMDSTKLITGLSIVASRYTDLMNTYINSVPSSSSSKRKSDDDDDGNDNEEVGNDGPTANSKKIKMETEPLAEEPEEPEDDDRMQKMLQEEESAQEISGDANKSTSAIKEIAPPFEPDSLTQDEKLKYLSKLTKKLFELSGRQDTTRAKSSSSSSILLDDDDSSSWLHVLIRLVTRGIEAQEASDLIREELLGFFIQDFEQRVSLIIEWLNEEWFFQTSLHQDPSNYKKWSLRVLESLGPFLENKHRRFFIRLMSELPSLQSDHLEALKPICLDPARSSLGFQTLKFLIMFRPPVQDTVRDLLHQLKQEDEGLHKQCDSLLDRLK

T3: Ref2-TAPS (S. cerevisiae) (UniProt P42073)
T3 sequence: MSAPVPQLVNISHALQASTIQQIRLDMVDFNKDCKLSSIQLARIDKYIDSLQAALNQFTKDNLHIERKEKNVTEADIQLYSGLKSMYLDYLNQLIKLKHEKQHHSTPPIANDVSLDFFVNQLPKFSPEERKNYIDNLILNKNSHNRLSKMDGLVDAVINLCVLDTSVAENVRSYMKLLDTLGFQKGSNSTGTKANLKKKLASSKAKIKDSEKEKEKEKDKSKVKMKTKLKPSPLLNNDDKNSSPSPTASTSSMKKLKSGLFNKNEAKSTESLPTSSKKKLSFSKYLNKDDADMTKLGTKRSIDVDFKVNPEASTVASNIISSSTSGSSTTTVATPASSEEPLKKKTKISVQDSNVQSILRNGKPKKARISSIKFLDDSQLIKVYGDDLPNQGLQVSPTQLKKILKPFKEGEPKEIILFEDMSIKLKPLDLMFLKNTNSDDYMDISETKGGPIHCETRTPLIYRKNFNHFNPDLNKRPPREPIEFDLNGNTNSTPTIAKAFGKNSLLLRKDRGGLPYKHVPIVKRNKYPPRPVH

T4: Syc1-TAPS (S. cerevisiae) (UniProt Q08553)
T4 sequence: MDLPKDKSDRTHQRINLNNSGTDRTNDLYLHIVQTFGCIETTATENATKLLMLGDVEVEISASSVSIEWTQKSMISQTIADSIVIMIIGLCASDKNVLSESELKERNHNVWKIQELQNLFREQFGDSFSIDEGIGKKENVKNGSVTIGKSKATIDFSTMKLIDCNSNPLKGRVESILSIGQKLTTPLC

B1: Ysh1 (enzyme, UniProt Q06224 1-779)
chain: MERTNTTTFKFFSLGGSNEVGRSCHILQYKGKTVMLDAGIHPAYQGLASLPFYDEFDLSKVDILLISHFHLDHAASLPYVMQRTNFQGRVFMTHPTKAIYRWLLRDFVRVTSIGSSSSSMGTKDEGLFSDEDLVDSFDKIETVDYHSTVDVNGIKFTAFHAGHVLGAAMFQIEIAGLRVLFTGDYSREVDRHLNSAEVPPLSSNVLIVESTFGTATHEPRLNRERKLTQLIHSTVMRGGRVLLPVFALGRAQEIMLILDEYWSQHADELGGGQVPIFYASNLAKKCMSVFQTYVNMMNDDIRKKFRDSQTNPFIFKNISYLRNLEDFQDFGPSVMLASPGMLQSGLSRDLLERWCPEDKNLVLITGYSIEGTMAKFIMLEPDTIPSINNPEITIPRRCQVEEISFAAHVDFQENLEFIEKISAPNIILVHGEANPMGRLKSALLSNFASLKGTDNEVHVFNPRNCVEVDLEFQGVKVAKAVGNIVNEIYKEENVEIKEEIAAKIEPIKEENEDNLDSQAEKGLVDEEEHKDIVVSGILVSDDKNFELDFLSLSDLREHHPDLSTTILRERQSVRVNCKKELIYWHILQMFGEAEVLQDDDRVTNQEPKVKEESKDNLTNTGKLILQIMGDIKLTIVNTLAVVEWTQDLMNDTVADSIIAILMNVDSAPASVKLSSHSCDDHDHNNVQSNAQGKIDEVERVKQISRLFKEQFGDCFTLFLNKDEYASNKEETITGVVTIGKSTAKIDFNNMKILECNSNPLKGRVESLLNIGGNLVTPLC
B2: Cft2 (protein, UniProt Q12102 1-859)
chain: MTYKYNCCDDGSGTTVGSVVRFDNVTLLIDPGWNPSKVSYEQCIKYWEKVIPEIDVIILSQPTIECLGAHSLLYYNFTSHFISRIQVYATLPVINLGRVSTIDSYASAGVIGPYDTNKLDLEDIEISFDHIVPLKYSQLVDLRSRYDGLTLLAYNAGVCPGGSIWCISTYSEKLVYAKRWNHTRDNILNAASILDATGKPLSTLMRPSAIITTLDRFGSSQPFKKRSKIFKDTLKKGLSSDGSVIIPVDMSGKFLDLFTQVHELLFESTKINAHTQVPVLILSYARGRTLTYAKSMLEWLSPSLLKTWENRNNTSPFEIGSRIKIIAPNELSKYPGSKICFVSEVGALINEVIIKVGNSEKTTLILTKPSFECASSLDKILEIVEQDERNWKTFPEDGKSFLCDNYISIDTIKEEPLSKEETEAFKVQLKEKKRDRNKKILLVKRESKKLANGNAIIDDTNGERAMRNQDILVENVNGVPPIDHIMGGDEDDDEEEENDNLLNLLKDNSEKSAAKKNTEVPVDIIIQPSAASKHKMFPFNPAKIKKDDYGTVVDFTMFLPDDSDNVNQNSRKRPLKDGAKTTSPVNEEDNKNEEEDGYNMSDPISKRSKHRASRYSGFSGTGEAENFDNLDYLKIDKTLSKRTISTVNVQLKCSVVILNLQSLVDQRSASIIWPSLKSRKIVLSAPKQIQNEEITAKLIKKNIEVVNMPLNKIVEFSTTIKTLDISIDSNLDNLLKWQRISDSYTVATVVGRLVKESLPQVNNHQKTASRSKLVLKPLHGSSRSHKTGALSIGDVRLAQLKKLLTEKNYIAEFKGEGTLVINEKVAVRKINDAETIIDGTPSELFDTVKKLVTDMLAKI
B3: Pfs2 (protein, UniProt P42841 1-465)
chain: MDGHNQNQYQNQNQIQQSQQPPLKKYVTQRRSVDVSSPYINLYYNRRHGLPNLVVEPETSYTIDIMPPNAYRGRDRVINLPSKFTHLSSNKVKHVIPAIQWTPEGRRLVVATYSGEFSLWNASSFTFETLMQAHDSAVTTMKYSHDSDWMISGDADGMIKIWQPNFSMVKEIDAAHTESIRDMAFSSNDSKFVTCSDDNILKIWNFSNGKQERVLSGHHWDVKSCDWHPEMGLIASASKDNLVKLWDPRSGNCISSILKFKHTVLKTRFQPTKGNLLMAISKDKSCRVFDIRYSMKELMCVRDETDYMTLEWHPINESMFTLACYDGSLKHFDLLQNLNEPILTIPYAHDKCITSLSYNPVGHIFATAAKDRTIRFWTRARPIDPNAYDDPTYNNKKINGWFFGINNDINAVREKSEFGAAPPPPATLEPHALPNMNGFINKKPRQEIPGIDSNIKSSTLPGLSI

No constants are given. Whether binding was seen depends on the method and setting. Some binding calls cover weakened binding; strength is not graded here.

One test deals with T1, Mpe1-TAPS (S. cerevisiae). Nature of the test: SEC; TAPS affinity purification from tagged yeast strain, then Superose 6 PC 3.2/30 in 20 mM HEPES pH 7.9, 150 mM KCl, 3 mM DTT, 0.5 mM Mg(OAc)2, 0.5 mM MnCl2; fractions on Coomassie-stained SDS-PAGE. For orientation: In gel filtration, larger molecules generally elute earlier.
On to B1, for which the binding result was “binds”.
With B2, the binding entry is listed as “binds”.
Still for that read-out and setting: as for B3, the entry is “binds”.

For a further test, the target named is Pap1-TAPS (S. cerevisiae) (UniProt P29468). Described as above.
Take B1: the binding result is on record as “binds”.
On to B2, for which the binding entry was “binds”.
Still for that read-out and setting: as for B3, the entry is “binds”.

The target in another test is T2, Pta1-TAPS (S. cerevisiae). The test is described as above.
Consider B1, for which the binding entry is given as “binds”.
In the case of B2, the binding entry is “binds”.
In the case of B3, the binding result is “binds”.

Another test deals with T3, Ref2-TAPS (S. cerevisiae). The test is described as above.
For B1, the binding result is given as “binds”.
On the same count and under the same terms, as for B2, the entry is “binds”; as for B3, “binds”.

The target in the next test is T4, Syc1-TAPS (S. cerevisiae). The test is described as above.
For the molecule B1, the binding result was “no binding”.
Take B2: the binding entry is on record as “no binding”.
Still for that read-out and setting: as for B3, the entry is “no binding”.

The target of the next test is T2, Pta1-TAPS (S. cerevisiae). Briefly: anion exchange chromatography; TAPS affinity purification from tagged yeast strain (Ref2-tagged; Pta1-tagged with SYC1 deleted), then Mono Q 5/50 GL in 20 mM HEPES pH 7.9, 150 mM KCl, 3 mM DTT, 0.5 mM Mg(OAc)2; APT eluted at 260 mM KCl and CPF at 400 mM KCl.
For the molecule B1, the binding result was “binds”.
Still for that read-out and setting: the same measure for B2: “binds”; for B3: “binds”.

The next test concerns the target T3, Ref2-TAPS (S. cerevisiae). Described as above.
With B1, the binding entry was “binds”.
For the molecule B2, the binding result is “binds”.
The same measure, in the same setting: the same measure for B3: “binds”.
